Data published in publication PMC12205066, “Lysosomal EGFR acts as a Rheb-GEF independent of its kinase activity to activate mTORC1” (Cell Research, 2025).

B1: GST-tagged Rheb […] (domain or fragment)
chain: not shown
notes: human Rheb, wild type, […]; also used nucleotide-free or loaded with GDP or GTPgammaS; In the nucleotide exchange assays purified Rheb-GDP was used (GST may have been cleaved by HRV3C); also called GST-Rheb; Rheb-WT; source: E. coli BL21(DE3), purified (GST resin); not shown: GST, N-terminal, kept
B2: purified Rheb-D60V ([…]) (domain or fragment)
chain: not shown
notes: human Rheb, […], with D60V; The methods say that Rheb was cleaved from GST with HRV3C protease when necessary; source: E. coli BL21(DE3), purified (GST resin, Superdex 200)

Tests used:
[1] = target: T1, purified EGFR-TKD-WT (amino acids 696-1022) (human, UniProt P00533 696-1022); experiment: pull-down; 15 μg EGFR-TKD with 15 μg GDP-loaded GST-Rheb, GST beads, overnight at 4 °C, Coomassie staining; conditions: both partners purified
T1 construct: Cloned into pFastBac1 by EcoRI and XbaI; the tag is not described; also called tyrosine kinase domain of EGFR; source: Sf9, baculovirus, purified (Ni-NTA, Superdex 200)

[2] = target: T1, purified EGFR-TKD-WT (amino acids …); experiment: SEC; EGFR-TKD incubated with a 3-fold molar excess of Rheb-D60V in buffer B (50 mM HEPES pH 7.5, 5 mM MgCl2, 1 mM DTT) with 1 mM EDTA overnight at 4 °C, size exclusion in buffer B; complex peak at 10.22 mL, fractions on SDS-PAGE; conditions: both partners purified

| Binder | binding result [1] | binding result [2] |
| --- | --- | --- |
| B1 | binds |  |
| B2 |  | binds |
